# Values joined by “and” are separate entries in the source; they are usually repeats but may differ in a detail not shown here. Equal values may be shown once. Among all 350,000 compounds or so, about 260 (0.074%) were called active. Inconclusive results, whose numbers are uncertain, are shown with a selection of clear calls. The call rests on the fitted dose curve; in most records, active means well fitted inhibition curve with a large enough effect; inconclusive means small, poorly fitted or top-dose-only effect; inactive means no such curve, though single readings can be large or run the other way. Potencies beside an inconclusive call are fits to weak or partial responses and may not hold up.
# Molecular target: Ferritin light chain (Equus caballus) (UniProt P02791)
# Assay: qHTS Assay for Identification of Novel General Anesthetics; further: nearly all actives have a fitted effect of over 20% in size
# Conditions: apoferritin/1-aminoanthracene competitive binding, fluorescence; activity change, negative = displacement: at 77.5 µM (top of the series)
# Procedure, shortened: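 Concentration-response curves derived by four-parameter Hill fitting of normalized fluorescence, where compounds displaced 1-AMA from 10 uM horse apoferritin following a brief 10 min room-temperature incubation; propofol titration acted as positive control.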
# On the % scale 0 is the no-effect control and ±100 the full control effect; potency means the concentration at half of the fitted maximal effect; tags describe the fitted curve by direction and shape.
# Sequence of UniProt P02791 (P02791 whole entry, looked up): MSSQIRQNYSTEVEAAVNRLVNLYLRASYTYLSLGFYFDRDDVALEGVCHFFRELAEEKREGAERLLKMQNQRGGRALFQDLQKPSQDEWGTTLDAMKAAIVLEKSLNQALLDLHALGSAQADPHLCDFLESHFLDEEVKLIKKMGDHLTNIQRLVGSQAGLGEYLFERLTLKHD
SMILES,"activity change, negative = displacement",Potency
CC(=O)c1ccc(NC(=O)c2ccn[nH]2)cc1,inactive: 0.146%,–
CSc1ccccc1NC(=O)c1ccc(Cl)s1,–,"inconclusive: 31.6 µM [inhibitor, partial curve]"
Clc1ccc(OCCCN2CCCC2)cc1Cl,inactive: -10.6%,–
Cc1cc(=O)[nH]c(N=N/C(=N/Nc2ccc(O)cc2)c2ccccc2)n1,–,"inconclusive: 35.5 µM [inhibitor, partial curve]"
O=C(CSc1nccn1-c1ccccc1)N1CCc2ccccc21,–,"inconclusive: 22.4 µM [inhibitor, partial curve]"
Cc1ccc(C)c(SCC(=O)OCC(=O)c2ccco2)c1,–,"inconclusive: 14.1 µM [inhibitor, partial curve]"
CCOc1ccc(Nc2ccc([N+](=O)[O-])c3nonc23)cc1,–,"inconclusive: 28.2 µM [inhibitor, partial curve]"
COc1cccc(CNC(=O)Cn2c(=O)oc3cc(S(=O)(=O)N4CCC(C)CC4)ccc32)c1,–,"inconclusive: 25.1 µM [inhibitor, partial curve]"
COc1ccc(Cc2nc3ccc(C(=O)N4CCCC4)cc3o2)cc1OC,inactive: 4.4%,–
Cc1noc(C)c1CSCC(=O)N(CCC(C)C)c1c(N)n(Cc2ccccc2)c(=O)[nH]c1=O,–,"inconclusive: 28.2 µM [inhibitor, partial curve]"
COc1ccc(Cn2c(C(=O)O)c(CNCCc3ccccc3Cl)c3ccc(C)cc32)cc1,inactive: -7.24%,–
Cc1ccc(CCC(=O)Nc2ccccc2F)s1,–,"inconclusive: 28.2 µM [inhibitor, partial curve]"
COc1cccc(NC(=O)N2CCCc3ccccc32)c1,–,"inconclusive: 28.2 µM [inhibitor, single point]"
c1ccc(-c2nnc(SCC3CCCCO3)nc2-c2ccccc2)cc1 (stereo not drawn),–,"inconclusive: 31.6 µM [inhibitor, partial curve]"
O=C(Nc1ccc2oc(-c3ccccc3)nc2c1)C1CCCO1 (stereo not drawn),inactive: -4.47%,–
O=C(CSc1ncn[nH]1)Nc1ccc([N+](=O)[O-])cc1Br,inactive: -6.65%,–
Cc1ccccc1N1C(=O)CC2(CCCC2)CC1=O,–,"inconclusive: 8.91 µM [inhibitor, partial curve]"
O=C1/C(=C\c2ccsc2)NC(=S)N1c1ccccc1,–,"inconclusive: 28.2 µM [inhibitor, single point]"
Cc1ccc(CSCCNC(=O)c2ccc(Cl)c(S(=O)(=O)N3CCOCC3)c2)cc1,–,"inconclusive: 25.1 µM [inhibitor, partial curve]"
Cc1ccc(C2=NN(S(C)(=O)=O)C(c3cccs3)C2)cc1 (stereo not drawn),–,"inconclusive: 35.5 µM [inhibitor, partial curve]"
CCOC(=O)Cc1cc(-c2ccc(OC)cc2)nc2ccc3ccccc3c12,inactive: -2.96%,–
O=C(c1cccs1)N1CCN(c2ccccc2)CC1,inactive: -9.98%,–
CC1CCC(C(=O)NNC(=O)c2cc(-c3ccco3)[nH]n2)CC1 (stereo not drawn),–,"inconclusive: 20 µM [inhibitor, partial curve]"

SMILES,"activity change, negative = displacement",Potency
CN(C)c1ccc(/C=[N+](\[O-])C(C)(C)/C=N/O)cc1,–,"inconclusive: 39.8 µM [inhibitor, single point]"
Cn1c(=O)c2sccc2n2c(CCC(=O)Nc3ccc(F)cc3)nnc12,inactive: -8.08%,–
Clc1ccc(CNCCCSc2ncccn2)cc1,inactive: -1.23%,–
CCn1c(SCC(=O)NC(=O)Nc2ccc3c(c2)OCCO3)nnc1-c1cccs1,–,"inconclusive: 20 µM [inhibitor, partial curve]"
N#C/C(=C\C=C\c1ccccc1[N+](=O)[O-])C(=O)NC1CCCCC1,–,"inconclusive: 25.1 µM [inhibitor, partial curve]"
O=C(c1ccc(F)cc1)N1CCCC(c2ccccc2)C1 (stereo not drawn),–,"inconclusive: 35.5 µM [inhibitor, partial curve]"
O=C(NCc1ccc(Cl)cc1)C(=O)NCC1OCCCN1S(=O)(=O)c1cccs1 (stereo not drawn),–,"inconclusive: 44.7 µM [inhibitor, single point]"
O=S(=O)(Nc1cccc(-c2ccc(N3CCOCC3)nn2)c1)c1cc(C(F)(F)F)ccc1Cl,–,"inconclusive: 39.8 µM [inhibitor, single point]"
CC(Cc1cccs1)NC(=O)Nc1ccc(F)cc1 (stereo not drawn),inactive: -15.3%,–
COc1ccc2c(c1)c(=O)c(C(=O)c1ccc(C)cc1)cn2Cc1ccccc1F,–,"inconclusive: 11.2 µM [inhibitor, partial curve]"
CC(C)c1nc2n[nH]c(N)c2c2c1CSC(C)(C)C2,–,"inconclusive: 31.6 µM [inhibitor, single point]"
O=C(O)CCc1nn2c3ccccc3nc2n(CCN2CCCCC2)c1=O,inactive: -4.19%,–
CCc1ccccc1NC(=O)/C(=C/c1ccco1)c1ccccc1,–,"inconclusive: 44.7 µM [inhibitor, partial curve]"
Cc1ccc(-c2cc(C(=O)N/N=C/c3ccc([N+](=O)[O-])o3)c3ccccc3n2)o1,inactive: -21.5%,–
CCC(C)(C)C(=O)O[C@H]1C[C@@H](C)C=C2C=C[C@H](C)[C@H](CC[C@@H]3C[C@@H](O)CC(=O)O3)[C@H]21,–,"inconclusive: 35.5 µM [inhibitor, partial curve]"
CC(C)c1ccccc1NC(=O)COC(=O)C1(C)CC1(Cl)Cl (stereo not drawn),–,"inconclusive: 35.5 µM [inhibitor, single point]"
Cc1cccc(NC(=O)C(=O)NCCCc2ccccc2)c1,–,"inconclusive: 25.1 µM [inhibitor, partial curve]"
CN(C(=O)Cc1c(C(=O)O)n(C)c2ccccc12)c1ccc(Cl)cc1,inactive: 3.75%,–
COc1ccc(C2=NN3C(C2)c2ccccc2OC3c2cccs2)cc1 (stereo not drawn),–,"inconclusive: 39.8 µM [inhibitor, single point]"
CC(Oc1ccccc1)C(=O)Nc1nnc(S(=O)(=O)N2CCCCCC2)s1 (stereo not drawn),–,"inconclusive: 31.6 µM [inhibitor, single point]"
OCCN(CCO)c1ccc(C(c2ccc(Cl)cc2)c2ccc(N(CCO)CCO)cc2Cl)c(Cl)c1,–,"inconclusive: 22.4 µM [inhibitor, partial curve]"
CCC1(COC(=O)Nc2cccc(Cl)c2)COC1,–,"inconclusive: 31.6 µM [inhibitor, partial curve]"
CCc1ccc(CNC(=O)C(CC)n2nc(C)c3c(C)n(-c4ccccc4)nc3c2=O)cc1 (stereo not drawn),–,"inconclusive: 0.891 µM [inhibitor, full curve, poor fit]"

SMILES,"activity change, negative = displacement",Potency
CCOC(=O)c1[nH]c2ccccc2c1NC(=O)c1ccccc1OC,inactive: -5.9%,–
CC(C)c1ccc(C(=O)NN2C(=O)C3CCCCC3C2=O)cc1 (stereo not drawn),–,"inconclusive: 20 µM [inhibitor, partial curve]"
Cc1cccc(NC(=O)CCCC(=O)OC(C)C(=O)c2ccccc2)c1 (stereo not drawn),–,"inconclusive: 39.8 µM [inhibitor, single point]"
Cc1cc(NC(=O)CSc2nnc(-c3ccncc3)n2N)ccc1Br,–,"inconclusive: 22.4 µM [inhibitor, partial curve]"
O=C(COC(=O)c1cccnc1Cl)c1ccc(Cl)cc1Cl,–,"inconclusive: 25.1 µM [inhibitor, partial curve]"
O=C(Nc1ccc(N2CCCC2)c(Cl)c1)c1ccc([N+](=O)[O-])cc1,inactive: -6.35%,–
CC(C)(C)c1ccc(C(=O)Nc2cccc3ncccc23)cc1,–,"inconclusive: 50.1 µM [inhibitor, single point]"
COc1cc(C2=NOC(C(=O)N3CCN(c4ccc(F)cc4)CC3)C2)cc(OC)c1OC (stereo not drawn),–,"inconclusive: 44.7 µM [inhibitor, partial curve]"
CCC(C(=O)NCCC1=CCCCC1)n1nc(C)c2c(C)n(-c3ccccc3)nc2c1=O (stereo not drawn),–,"inconclusive: 35.5 µM [inhibitor, partial curve]"
COc1ccc2c(c1)C(c1ccc(C)cc1)CC(=O)O2 (stereo not drawn),–,"inconclusive: 63.1 µM [inhibitor, partial curve, poor fit]"
COc1cccc(N2C(=O)C(CC(=O)Nc3ccc(F)cc3)N(CCC3=CCCCC3)C2=O)c1 (stereo not drawn),inactive: 42.1%,–
O=C(/C=C\c1ccccc1OC(=O)c1ccccc1F)c1cc2ccccc2o1,–,"inconclusive: 8.91 µM [inhibitor, partial curve]"
Cc1cc(-c2ccccc2)nc(SCC(=O)c2cccc([N+](=O)[O-])c2)n1,–,"inconclusive: 35.5 µM [inhibitor, partial curve]"
Cc1ccc(C)c(NS(=O)(=O)c2c(C)ccc3nsnc23)c1,–,"inconclusive: 39.8 µM [inhibitor, partial curve]"
O=C(Nc1ccccc1Cl)C1CCN(Cc2cnn(-c3ccccc3)c2-n2cccc2)CC1,–,"inconclusive: 22.4 µM [inhibitor, partial curve]"
Nc1c(C(=O)NCc2ccc3c(c2)OCO3)nnn1CC(=O)Nc1ccc(Br)cc1,–,"inconclusive: 4.47 µM [inhibitor, full curve] and inconclusive: 3.55 µM [inhibitor, full curve]"
COc1ccc(S(=O)(=O)NC2CCCCC2)cc1-n1cnnn1,inactive: -7.57%,–
Cc1ccc(Cn2cc(C(=O)c3ccc(C)cc3)c(=O)c3ccc(C)nc32)cc1,–,"inconclusive: 15.8 µM [inhibitor, partial curve]"
Cn1c(COc2ccc(Cl)cc2)nnc1SCc1ncc(-c2ccccc2)o1,–,"inconclusive: 14.1 µM [inhibitor, partial curve]"
C/C(=N\NC(=O)c1ccccc1O)C1C(=O)c2ccccc2C1=O,–,"inconclusive: 28.2 µM [inhibitor, partial curve]"
O=C(N/N=C/C(Br)=C/c1ccccc1)c1n[nH]c2c1CCC2,–,"inconclusive: 39.8 µM [inhibitor, single point]"
Oc1cnc2ccccc2c1CN1CCOCC1,inactive: -5.42%,–
